{"source": "the supplement of paper PMC10185492", "note": "Some of the results follow. These are enrichments in a pooled selection; single values are uncertain.", "data": [{"system": "SARS-CoV-2 3CLpro (nsp5)", "experiment": "substrate phage enrichment score (protease-eluted vs HEPES control, +1 offset) (ratio); higher = better cleaved substrate", "details": "selection round: 3; protease elution time: 0.5 h", "method": "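Random heptapeptide substrate phage display (M13 pIII fusion, heptapeptide between an N-terminal biotinylated AviTag GLNDIFEAQKIEWHE and pIII; phages immobilised on streptavidin) eluted by cleavage with 50 nM protease in 20 mM HEPES at 37 °C. Selected phages were NGS sequenced, and the enrichment score is (reads in protease sample + 1)/(reads in HEPES blank-selection control + 1).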", "values": [{"substance": "YADVNAW", "substrate phage enrichment score": "> 28"}, {"substance": "SWEEKCG", "substrate phage enrichment score": 1.4}, {"substance": "RTRSCLQ", "substrate phage enrichment score": "> 46"}, {"substance": "TDAAHHH", "substrate phage enrichment score": 1.24}, {"substance": "LRVETHD", "substrate phage enrichment score": 7.09}, {"substance": "AKYQPLR", "substrate phage enrichment score": 20.5}, {"substance": "SAAVHHH", "substrate phage enrichment score": 1.11}, {"substance": "EYFQGGS", "substrate phage enrichment score": 0.833}, {"substance": "ARTGTPP", "substrate phage enrichment score": 2.35}, {"substance": "MRPAVKS", "substrate phage enrichment score": 2.75}, {"substance": "RKESSHP", "substrate phage enrichment score": 3.6}, {"substance": "VGQSYSP", "substrate phage enrichment score": "> 29"}, {"substance": "PRAVLQC", "substrate phage enrichment score": "> 51"}, {"substance": "LTGVNGA", "substrate phage enrichment score": 0.762}, {"substance": "NQCSHMT", "substrate phage enrichment score": "> 28"}, {"substance": "DASTRLQ", "substrate phage enrichment score": "> 46"}, {"substance": "KKSASLN", "substrate phage enrichment score": "> 29"}, {"substance": "FTTNSAH", "substrate phage enrichment score": 1.44}, {"substance": "EVKATLH", "substrate phage enrichment score": 7}, {"substance": "VETPDSL", "substrate phage enrichment score": 0.526}, {"substance": "VKCSLCD", "substrate phage enrichment score": "> 25"}, {"substance": "GDDKFRI", "substrate phage enrichment score": 1.33}, {"substance": "HLHCRRQ", "substrate phage enrichment score": "> 25"}, {"substance": "TVERLPG", "substrate phage enrichment score": 4.75}, {"substance": "PTCKKKW", "substrate phage enrichment score": "> 28"}, {"substance": "NTPSTKD", "substrate phage enrichment score": 39.5}, {"substance": "KHGNLSE", "substrate phage enrichment score": "> 28"}, {"substance": "ESRARLQ", "substrate phage enrichment score": "> 54"}, {"substance": "NRGAYHS", "substrate phage enrichment score": 9.75}, {"substance": "SMQCIGP", "substrate phage enrichment score": "> 23"}, {"substance": "QAGALHD", "substrate phage enrichment score": 0.684}, {"substance": "CSGNKPP", "substrate phage enrichment score": 4.8}, {"substance": "HHHHGAA", "substrate phage enrichment score": 0.786}, {"substance": "SRYQRSG", "substrate phage enrichment score": 1.64}, {"substance": "HALLQSG", "substrate phage enrichment score": "> 57"}, {"substance": "SSQPCRQ", "substrate phage enrichment score": "> 263"}, {"substance": "CCLLQSA", "substrate phage enrichment score": "> 24"}, {"substance": "ATSAHHH", "substrate phage enrichment score": 0.923}, {"substance": "VEPPLNF", "substrate phage enrichment score": 2.2}, {"substance": "SPTPVLQ", "substrate phage enrichment score": "> 45"}, {"substance": "NHFGELK", "substrate phage enrichment score": 0.412}, {"substance": "PTRWSAR", "substrate phage enrichment score": 2.43}, {"substance": "SEAKASA", "substrate phage enrichment score": 2.11}, {"substance": "PVTQAIP", "substrate phage enrichment score": "> 43"}, {"substance": "AKGPLGT", "substrate phage enrichment score": 3.6}, {"substance": "RNRNNKN", "substrate phage enrichment score": 13}, {"substance": "CMAAHHH", "substrate phage enrichment score": 1.04}, {"substance": "CSKLRTH", "substrate phage enrichment score": 4}, {"substance": "VAAHHHH", "substrate phage enrichment score": 0.817}, {"substance": "THATGDV", "substrate phage enrichment score": 4.5}, {"substance": "TAQTNRL", "substrate phage enrichment score": 0.636}, {"substance": "TASGARG", "substrate phage enrichment score": 46}, {"substance": "VNEWRST", "substrate phage enrichment score": "> 38"}, {"substance": "GTSTQLH", "substrate phage enrichment score": "> 40"}, {"substance": "SETTILQ", "substrate phage enrichment score": "> 29"}, {"substance": "YQAAHHH", "substrate phage enrichment score": 0.464}, {"substance": "RPTSKSP", "substrate phage enrichment score": "> 24"}, {"substance": "GTAGCWR", "substrate phage enrichment score": 1.5}, {"substance": "HCLLHAD", "substrate phage enrichment score": "> 21"}, {"substance": "CILQGGS", "substrate phage enrichment score": "> 33"}, {"substance": "SQDTWTG", "substrate phage enrichment score": 3.38}, {"substance": "DSIQLQS", "substrate phage enrichment score": 5.57}, {"substance": "MRPTKHT", "substrate phage enrichment score": 7.14}, {"substance": "ATRSRLQ", "substrate phage enrichment score": "> 83"}, {"substance": "YGQRRPE", "substrate phage enrichment score": 0.36}, {"substance": "PNEDGCR", "substrate phage enrichment score": 1.27}, {"substance": "RLNHCGA", "substrate phage enrichment score": 1.36}, {"substance": "PSGGARQ", "substrate phage enrichment score": 2.44}, {"substance": "ARDSWAW", "substrate phage enrichment score": 3.67}, {"substance": "ITAAHHH", "substrate phage enrichment score": 1.11}, {"substance": "ENEIICF", "substrate phage enrichment score": 3}, {"substance": "PAQDCKR", "substrate phage enrichment score": 11}, {"substance": "AHFLGPQ", "substrate phage enrichment score": "> 22"}, {"substance": "QYLQARG", "substrate phage enrichment score": "> 24"}, {"substance": "SAAAQNH", "substrate phage enrichment score": 1.32}, {"substance": "CSPRLYR", "substrate phage enrichment score": 1.11}, {"substance": "YGDRDDS", "substrate phage enrichment score": "> 26"}, {"substance": "TLRGTEG", "substrate phage enrichment score": "> 34"}, {"substance": "YVHESSL", "substrate phage enrichment score": 1.44}, {"substance": "QGWRKPR", "substrate phage enrichment score": "> 42"}, {"substance": "VWPHIII", "substrate phage enrichment score": 1.2}, {"substance": "STSAHHH", "substrate phage enrichment score": 7.67}, {"substance": "RVREAPQ", "substrate phage enrichment score": 5.75}, {"substance": "TPYSKLQ", "substrate phage enrichment score": 423}, {"substance": "EEICRMQ", "substrate phage enrichment score": "> 29"}, {"substance": "VVVRPHI", "substrate phage enrichment score": 0.588}, {"substance": "QLCMPGM", "substrate phage enrichment score": 0.688}, {"substance": "HRNSDLT", "substrate phage enrichment score": 4.57}, {"substance": "RAAETVP", "substrate phage enrichment score": 0.833}, {"substance": "ATNVILQ", "substrate phage enrichment score": "> 85"}, {"substance": "AECGQAK", "substrate phage enrichment score": "> 24"}, {"substance": "REVISDG", "substrate phage enrichment score": 0.917}, {"substance": "KHAEFTR", "substrate phage enrichment score": "> 36"}, {"substance": "VGTWKGA", "substrate phage enrichment score": "> 30"}, {"substance": "AAPWVPW", "substrate phage enrichment score": 2.92}, {"substance": "PLTKNCV", "substrate phage enrichment score": "> 36"}, {"substance": "DPINQTT", "substrate phage enrichment score": 1.1}, {"substance": "LRSGTTI", "substrate phage enrichment score": 6.6}, {"substance": "APNECMS", "substrate phage enrichment score": 18.5}, {"substance": "GVLICRR", "substrate phage enrichment score": "> 28"}, {"substance": "LGQTLYD", "substrate phage enrichment score": 4.75}, {"substance": "QSKAEYA", "substrate phage enrichment score": 10.5}, {"substance": "AQYFQGG", "substrate phage enrichment score": 2.88}, {"substance": "GPVRERP", "substrate phage enrichment score": 8.43}, {"substance": "RAAAHHH", "substrate phage enrichment score": 1.11}, {"substance": "AKRPQVP", "substrate phage enrichment score": 0.111}, {"substance": "EQKPTPC", "substrate phage enrichment score": "> 21"}, {"substance": "RGDCARG", "substrate phage enrichment score": "> 21"}, {"substance": "PSHATHG", "substrate phage enrichment score": "> 24"}, {"substance": "WCLPSLQ", "substrate phage enrichment score": "> 23"}, {"substance": "CSLEGRT", "substrate phage enrichment score": "> 25"}, {"substance": "SASAHHH", "substrate phage enrichment score": 0.645}, {"substance": "TGSCTLQ", "substrate phage enrichment score": "> 36"}, {"substance": "SSPAAHH", "substrate phage enrichment score": 1.2}, {"substance": "CNHELTG", "substrate phage enrichment score": 4.5}, {"substance": "TATGTVG", "substrate phage enrichment score": 0.333}, {"substance": "QEAAHHH", "substrate phage enrichment score": 0.75}]}]}
